Data as given in the supplement of paper PMC8728848.
The list shows a part of the results.

Columns and labels:
Assay in all cases: glycan array binding signal (z-score within array); higher = stronger binding
Details in all cases: glycan notation: IUPAC condensed, linker removed
[1] = target: Fuc(a1-3)[Gal(b1-4)]GlcNAc
Summary of the method: (§1)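 The Consortium for Functional Glycomics database supplied 3228 glycan arrays, of which those lacking an available protein sequence were dropped. The binding signal, a within-array Z-score, was averaged across arrays of the same protein sequence and across linkers. Negative scores can be read as non-binding.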

[2] = target: Fuc(a1-3)[Gal(b1-4)]GlcNAc(b1-4)Gal(b1-4)[Fuc(a1-3)]GlcNAc
Summary of the method: as §1

[3] = target: Fuc(a1-3)[Gal(b1-4)]GlcNAc(b1-4)Gal(b1-4)[Fuc(a1-3)]GlcNAc(b1-4)Gal(b1-4)[Fuc(a1-3)]GlcNAc
Summary of the method: as §1

[4] = target: Fuc(a1-3)[Gal3S(b1-4)]GlcNAc
Summary of the method: as §1

[5] = target: Fuc(a1-3)[GalNAc(b1-4)]GlcNAc
Summary of the method: as §1

[6] = target: Fuc(a1-4)GlcNAc
Summary of the method: as §1

[7] = target: Fuc(b1-3)GlcNAc
Summary of the method: as §1

[8] = target: Gal(a1-2)Gal
Summary of the method: as §1

[9] = target: Gal(a1-3)Gal
Summary of the method: as §1

[10] = target: Gal(a1-3)Gal(b1-3)GlcNAc
Summary of the method: as §1

[11] = target: Gal(a1-3)Gal(b1-4)Glc
Summary of the method: as §1

[12] = target: Gal(a1-3)Gal(b1-4)GlcNAc
Summary of the method: as §1

[13] = target: Gal(a1-3)Gal(b1-4)[Fuc(a1-3)]GlcNAc
Summary of the method: as §1

[14] = target: Gal(a1-3)GalNAc
Summary of the method: as §1

[15] = target: Gal(a1-3)[Gal(a1-4)]Gal(b1-4)GlcNAc
Summary of the method: as §1

[16] = target: Gal(a1-4)Gal(b1-4)Glc
Summary of the method: as §1

[17] = target: Gal(a1-4)Gal(b1-4)GlcNAc
Summary of the method: as §1

[18] = target: Gal(a1-4)GlcNAc
Summary of the method: as §1

[19] = target: Gal(a1-6)Glc
Summary of the method: as §1

[20] = target: Gal(b1-2)Gal
Summary of the method: as §1

[21] = target: Gal(b1-3)Gal
Summary of the method: as §1

[22] = target: Gal(b1-3)GalNAc
Summary of the method: as §1

[23] = target: Gal(b1-3)GalNAc(b1-3)Gal(a1-4)Gal(b1-4)Glc
Summary of the method: as §1

[24] = target: Gal(b1-3)GalNAc(b1-4)Gal(b1-4)Glc
Summary of the method: as §1

[25] = target: Gal(b1-3)GalNAc(b1-4)[Neu5Ac(a2-3)]Gal(b1-4)Glc
Summary of the method: as §1

[26] = target: Gal(b1-3)GlcNAc
Summary of the method: as §1

[27] = target: Gal(b1-3)GlcNAc(b1-3)Gal(b1-4)Glc
Summary of the method: as §1

[28] = target: Gal(b1-3)GlcNAc(b1-3)Gal(b1-4)GlcNAc
Summary of the method: as §1

[29] = target: Gal(b1-3)[Fuc(a1-4)]GlcNAc
Summary of the method: as §1

[30] = target: Gal(b1-3)[Fuc(a1-4)]GlcNAc(b1-3)Gal(b1-4)GlcNAc
Summary of the method: as §1

B1: MAL (Maackia amurensis) (protein)
chain: SDELSFTINNFMPNQGDLLFQGVATVSPTGVLQLTSEENGQPLEYSVGRVLYTAPVRIWDSTTGAVASFSTSFTFVVKAARGASDGLAFFLAPPDSQIPSGSVSKYLGLFNNSNSDSSNQIVAVEFDTYFGHSYDPWDPNYRHIGIDVNGIESIKTVQWDWINGGVAFATITYLAPNKTLIASLVYPSNQTSFIVAASVDLKEILPEWVRVGFSAATGAPKAVETHDVRSWSFTSTLEANSPADVDN
glycan array binding signal (z-score) [1]: -0.231 | glycan array binding signal (z-score) [2]: -0.413 | glycan array binding signal (z-score) [3]: -0.419 | glycan array binding signal (z-score) [4]: -0.38 | glycan array binding signal (z-score) [5]: 0.242 | glycan array binding signal (z-score) [6]: -0.26 | glycan array binding signal (z-score) [7]: -0.348 | glycan array binding signal (z-score) [8]: -0.396 | glycan array binding signal (z-score) [9]: -0.38 | glycan array binding signal (z-score) [10]: -0.329 | glycan array binding signal (z-score) [11]: -0.239 | glycan array binding signal (z-score) [12]: -0.35 | glycan array binding signal (z-score) [13]: -0.384 | glycan array binding signal (z-score) [14]: -0.323 | glycan array binding signal (z-score) [15]: -0.364 | glycan array binding signal (z-score) [16]: -0.426 | glycan array binding signal (z-score) [17]: -0.408 | glycan array binding signal (z-score) [18]: -0.351 | glycan array binding signal (z-score) [19]: -0.391 | glycan array binding signal (z-score) [20]: -0.398 | glycan array binding signal (z-score) [21]: -0.439 | glycan array binding signal (z-score) [22]: -0.367 | glycan array binding signal (z-score) [23]: -0.287 | glycan array binding signal (z-score) [24]: -0.423 | glycan array binding signal (z-score) [25]: -0.409 | glycan array binding signal (z-score) [26]: -0.345 | glycan array binding signal (z-score) [27]: 1.15 | glycan array binding signal (z-score) [28]: -0.328 | glycan array binding signal (z-score) [29]: -0.289 | glycan array binding signal (z-score) [30]: -0.428
